Laboratory results published in PubChem BioAssay AID1645887 (National Center for Advancing Translational Sciences (NCATS), 2021).
Several values for one entry are separate records, joined by “and”; a condition that tells them apart may be missing. Equal values may be shown once. Hit rate of the full screen: of about 16,000 compounds, about 40 (0.2%) were called active. Roughly 1% stayed inconclusive and do not appear here. Calls come from the whole dose curve; as a rule, active = well fitted activation curve with a large enough effect; inconclusive = small, poorly fitted or top-dose-only effect, or another doubt; inactive = no such curve, though single readings can be large or run the other way. The list shows a part of the results.

Target: Rap guanine nucleotide exchange factor 4 (Homo sapiens) (UniProt Q8WZA2)
Chain of UniProt Q8WZA2 (Q8WZA2 whole entry, looked up): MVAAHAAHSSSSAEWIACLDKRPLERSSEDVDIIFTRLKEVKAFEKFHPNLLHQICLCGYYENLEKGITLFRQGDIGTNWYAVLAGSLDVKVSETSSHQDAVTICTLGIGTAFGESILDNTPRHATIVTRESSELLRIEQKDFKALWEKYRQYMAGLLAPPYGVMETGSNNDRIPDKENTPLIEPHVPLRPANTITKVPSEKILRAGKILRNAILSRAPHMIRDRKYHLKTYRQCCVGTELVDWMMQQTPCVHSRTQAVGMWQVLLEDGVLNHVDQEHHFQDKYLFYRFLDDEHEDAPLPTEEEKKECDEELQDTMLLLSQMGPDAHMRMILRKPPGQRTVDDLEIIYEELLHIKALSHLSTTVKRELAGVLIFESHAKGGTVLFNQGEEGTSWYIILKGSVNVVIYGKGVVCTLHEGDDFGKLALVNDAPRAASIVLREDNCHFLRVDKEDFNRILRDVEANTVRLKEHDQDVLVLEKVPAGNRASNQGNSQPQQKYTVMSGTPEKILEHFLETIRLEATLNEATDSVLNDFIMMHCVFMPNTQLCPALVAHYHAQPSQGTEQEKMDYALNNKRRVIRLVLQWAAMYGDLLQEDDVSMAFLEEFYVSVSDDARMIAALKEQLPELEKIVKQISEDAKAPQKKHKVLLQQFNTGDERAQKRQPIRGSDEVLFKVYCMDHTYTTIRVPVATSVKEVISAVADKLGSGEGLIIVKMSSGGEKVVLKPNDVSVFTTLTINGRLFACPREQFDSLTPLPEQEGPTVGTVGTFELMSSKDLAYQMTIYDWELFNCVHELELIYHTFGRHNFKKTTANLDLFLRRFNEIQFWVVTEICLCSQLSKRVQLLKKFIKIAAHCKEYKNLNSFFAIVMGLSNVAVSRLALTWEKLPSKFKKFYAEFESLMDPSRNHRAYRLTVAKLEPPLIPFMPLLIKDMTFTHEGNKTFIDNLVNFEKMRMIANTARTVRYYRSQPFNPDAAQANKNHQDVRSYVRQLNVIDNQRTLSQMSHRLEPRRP
Assay: Validation qHTS for agonist of cAMP-regulated guanine nucleotide exchange factor 4 (EPAC2);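 note: exchange makes BODIPY-GDP fluorescence drop when released from Rap1B; series mostly up to about 150 µM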
Conditions: EPAC2 Rap1B BODIPY-GDP exchange, fluorescence; activation: active compounds read high
In short: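 Signal normalized against 6.5 mM cAMP as agonist control. Mix of EPAC2 (100 nM), RAP1B-BODIPY-GDP (250 nM) and GDP (50 uM) was read kinetically at 480/540 nm, every 5 min over 30 min, after 5 min room-temperature incubation with compound.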
% is set by controls: 0 for no effect and ±100 for the full control effect.

activation, inactive:
C=C1C([C@@]2(C)C(OC(C)=O)CC(=O)O[C@@](C)(COC(C)=O)C2CC(=O)OC)C(OC=O)C(OC(=O)C(O)C(C)CC)[C@]2(C)C(c3ccoc3)CC(=O)C12O (some centres undefined) -24%
COc1ccccc1C1CN(CC(=O)N2CCC(N3CCOCC3)CC2)Cc2ccccc2O1 (centres undefined) -15.1%
COc1cccc(-c2ccc3ncnc(NCc4cccnc4)c3c2)c1 -11%
CN1CC(O)c2cc(N=NC(N)=O)c(O)cc21 (centres undefined) -14.7%
FC(F)(F)c1cc(CN2CCC3(CCNCC3)CC2)cc(C(F)(F)F)c1 -8.73%
OCC(O)COc1cccc2ccccc12 (centres undefined) 4.09%
Cc1cnc(C)c(-c2ccc(O)c(CN3CCN(C=O)CC3)c2)n1 -13.6%
CN1CCN(c2nc(-c3cccc(NS(C)(=O)=O)c3)nc3ccccc23)CC1 -13.1%
COc1cc2c(cc1OC)C1Cc3ccc(OC)c(OC)c3CN1CC2 (centres undefined) -10.7%
CCOC(=O)C1=C(COCCN)NC(C)=C(C(=O)OC)C1c1ccccc1Cl (centres undefined) -20.7% and -9.83%
CC(=O)N1CCCC1C(=O)O (centres undefined) 14.1%
CCCCCCCCCCCCCCC(C(=O)O)C(O)(CC(=O)OC)C(=O)O (centres undefined) -39.4%
COc1ccccc1N1CCN(CCN2C(=O)c3ccccc3C(C)(C)C2=O)CC1 4.03% and -13.2%
COc1ccc(CN2[C@@H](CC(=O)O)c3ccccc3S2(=O)=O)cc1 -5.97%
COc1ccc(-c2nc3cnc(N4CCOCC4)nc3n(Cc3cccs3)c2=O)cc1 -9.12%
O=C(O)c1ccc(OCCCOc2ccc(C(=O)O)cc2)cc1 1.74%
CC(=O)O[C@H]1CC[C@@]2(C)C(=CC[C@@H]3[C@@H]2CC[C@]2(C)C(c4cccnc4)=CC[C@@H]32)C1 -12.6%
Cc1cccc(C)c1NC(=O)CC12CCCN1CCC2 0.0064%
CCc1cc(C(=O)NCC2Cc3cc(-c4ccccc4C(C)=O)ccc3O2)no1 (centres undefined) -13.3%
COc1ccc(C(=O)N2CCC3(CC2)CN(c2ccncc2)C3)cc1 3.62%
Cc1ccc2ccccc2[n+]1CCCCI -12.7%
O=C(c1ccccc1)c1ccc(Cn2cc(-c3ccccc3)nn2)cc1 -12.6%
COc1cccc(CNC(=O)c2cnn(-c3ncc4c(n3)-c3ccccc3CCC4)c2C)c1OC -8.82%
O=C(c1ccccc1C(F)(F)F)N1CCOc2c(cc(-c3nc4ccccc4s3)cc2OC2CCOC2)C1 (centres undefined) 2.52%
